Source: PubChem BioAssay AID1963576 (National Center for Advancing Translational Sciences (NCATS), 2024)
In all, about 46,000 compounds went through this assay and about 60 (0.1%) were called active. Inconclusive results (about 3%) are left out. Calls come from the whole dose curve; as a rule, active = well fitted inhibition curve with a large enough effect; inconclusive = small, poorly fitted or top-dose-only effect; inactive = no such curve, though single readings can be large or run the other way. The list shows a part of the results.

test: Primary qHTS assay for Inhibitors of ovarian cancer metastasis using an organotypic tumor microenvironment (TME) model.; note: nearly all actives have a fitted effect of over 65% in size;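 for activity change, negative = inhibition: plate controls were DMSO wells for no effect and tomatine positive control wells for full effect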; details: SKOV3ip1-GFP adhesion/invasion on 3D omental model, fluorescence; series mostly up to 45.8 µM; activity change, negative = inhibition: at the top concentration
In short: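 Primary human omental fibroblast/mesothelial 3D culture pre-formed 48 h. SKOV3ip1-GFP cells added with compounds (0.36-46 umol/L), incubated 2 h RT/16 h 37 C, fixed; GFP cells quantified at 488/509 nm.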

Row | SMILES | activity change, negative = inhibition | outcome
1 | CCN(Cc1ccccc1)S(=O)(=O)c1ccc(F)c(C(=O)Nc2ccc(C(C)C)cc2)c1 | inactive: 1.23% | 
2 | CCC(=O)N1CCc2cc(S(=O)(=O)NC(CC(C)C)C(=O)NCc3cccc(OC)c3)ccc21 (stereo not drawn) | inactive: 5.68% | 
3 | Cc1ccc(CNC(=O)CCCn2nc(C)n3c(cc4sccc43)c2=O)cc1 | inactive: -16.6% | 
4 | Cc1ccc(NC(=O)NCc2c(-n3cccc3)sc3c2CCCC3)c(Cl)c1 | inactive: -14.2% | 
5 | COc1cccc(C(=O)c2cn(CC(=O)Nc3ccc4c(c3)OCCO4)c3nc(C)ccc3c2=O)c1 | inactive: 2.71% | 
6 | CC(=O)c1ccc(S(=O)(=O)Nc2cccc(-c3ccc(N4CCCC4)nn3)c2)cc1 | inactive: 4.23% | 
7 | Cc1ccc(Sc2c(C)nn(-c3ccccc3)c2OC(=O)CC(C)C)cc1 | inactive: -0.537% | 
8 | CCOc1ccc(CC(=O)NCc2ccc3c(c2)CCN3C(=O)c2ccc(F)cc2)cc1OCC |  | inactive
9 | Cc1ccccc1CN1C(=O)c2ccccc2Sc2ccc(C(=O)NCCCN3CCOCC3)cc21 | inactive: -6.77% | 
10 | COc1ccccc1N1CCN(CC(O)COc2cccc3ccccc23)CC1 (stereo not drawn) | inactive: 8% | 
11 | O=C(NCCCc1ccccc1)c1ccc2c(c1)sc1nc(-c3ccc(F)cc3)cn12 |  | inactive
12 | CC(=O)c1ccc(NC(=O)c2nn(C)c3c2COc2ccccc2-3)cc1 | inactive: -4.15% | 
13 | CCn1c(SCC(=O)Nc2cc(Cl)ccc2OC)nc2c([nH]c3ccccc32)c1=O |  | inactive
14 | Cc1ccc(NC(=O)CN2C(=O)c3ccccc3Sc3ncccc32)c(C)c1 |  | inactive
15 | Cc1ccc(NC(=O)c2sc3nc[nH]c(=O)c3c2C)cc1C | inactive: -2.73% | 
16 | O=C(NCCc1ccc(Cl)cc1)c1ccc2c(c1)N(Cc1ccccc1)C(=O)CS2 | inactive: 8.54% | 
17 | COc1ccccc1NC(=O)C1=C(C)Nc2nc(SCc3ccccc3)nn2C1c1cccs1 (stereo not drawn) |  | inactive
18 | O=c1c2ccccc2nc(-c2ccc(Cl)cc2)n1CCCCOc1ccc(F)cc1 | inactive: 6.65% | 
19 | CC(Oc1ccccc1F)C(=O)N1CCC(c2nc3ccccc3o2)CC1 (stereo not drawn) | inactive: -1.11% | 
20 | CCc1cc2c(-c3ccccc3)cc(=O)oc2c2c1OCN(Cc1ccc(C)cc1)C2 | inactive: -5.59% | 
21 | CCOC(=O)c1c(NC(=O)c2cc(-c3ccc(Br)cc3)on2)sc(C)c1C | inactive: 3% | 
22 | CCOc1ccccc1NC(=O)N1CCC(N2CCN(Cc3ccccc3)C(=O)C2=O)CC1 |  | inactive
23 | Cc1ccc(N(CC(=O)NCc2ccc(OC(C)C)cc2)S(=O)(=O)N(C)C)cc1 | inactive: 2.58% | 
24 | CCOC(=O)c1ccccc1NC(=O)CCc1c(C)nc2c(c1C)c(=O)n(C)c(=O)n2C |  | inactive

Row | SMILES | activity change, negative = inhibition | outcome
25 | CCOc1ccc(CN2C(=O)c3ccccc3Sc3ccc(C(=O)NC4CCC(C)CC4)cc32)cc1 (stereo not drawn) | inactive: 48.1% | 
26 | Cc1ccc(Cn2c(Cc3ccccc3)nc3ccccc32)cc1 |  | inactive
27 | COC(=O)c1ccc(NC(=O)CCOc2ccccc2)cc1 | inactive: -3.39% | 
28 | Cc1cccc(NC(=O)Cn2c(=O)oc3cc(S(=O)(=O)N4CCCCCC4)ccc32)c1 | inactive: -25.4% | 
29 | COc1ccc(-c2noc(CSc3nnc(-c4ccncc4)n3-c3ccc(OC)cc3)n2)cc1 | inactive: -9.02% | 
30 | O=C(NC1CC(=O)N(c2ccc(F)cc2)C1)C(c1ccccc1)c1ccccc1 (stereo not drawn) | inactive: -2.31% | 
31 | Cn1cc(C(=O)N2CCN(c3ccccc3)CC2)c(=O)c2cc(S(=O)(=O)N3CCCC3)ccc21 | inactive: 1.04% | 
32 | COC(=O)c1ccc(NC(=O)c2cc3cc4ccc(OC)c(Cl)c4nc3s2)cc1 | inactive: 6.91% | 
33 | COc1ccc(CNC(=O)CCS(=O)(=O)c2cc3c4c(c2)CCN4C(=O)CC3)cc1 | inactive: 4.92% | 
34 | CCCC(=O)Nc1nnc(S(=O)(=O)N(C)c2ccccc2)s1 | inactive: 4.73% | 
35 | COc1ccc(S(=O)(=O)N(CCc2ccccc2)CC(=O)NCc2ccc(C)cc2)cc1 | inactive: 3.13% | 
36 | O=C(C1CC1)N1CCc2cc(Br)cc(S(=O)(=O)Nc3ccc(C(F)(F)F)cc3)c21 |  | inactive
37 | CCOc1ccc(-n2nc3ccc(NC(=O)COc4ccccc4C)cc3n2)cc1 | inactive: 5.04% | 
38 | COc1ccc(NC(=O)C(=O)NCCc2csc3nc(-c4ccccc4C)nn23)cc1 |  | inactive
39 | O=C(Nc1c(O)c2ccccc2oc1=O)c1ccccc1Cl | inactive: -7.9% | 
40 | CCOc1ccc(CNC(=O)CN2C(=O)CSc3c2c(C)nn3-c2ccccc2)cc1 |  | inactive
41 | COCCNC(=O)c1ccc(NC(=O)N2CCCCc3ccccc32)cc1 | inactive: 6.37% | 
42 | O=C(NCC(c1cccnc1)N1CCN(Cc2ccccc2)CC1)C(=O)Nc1ccc(F)cc1 (stereo not drawn) | inactive: -11.7% | 
43 | COc1cccc(CNC(=O)C2CCCN(c3nnc(-n4c(C)ccc4C)s3)C2)c1 (stereo not drawn) | inactive: 38.5% | 
44 | CN1CCN(c2cc(C(=O)Nc3ccc4c(c3)-c3c(c(C(N)=O)nn3-c3ccc(F)cc3)CC4)c(Cl)cn2)CC1 | inactive: -25.2% | 
45 | Cc1cc(C)c(S(=O)(=O)Nc2ccc(-c3ccc(N4CCCCC4)nn3)cc2)cc1C | inactive: -6.01% | 
46 | CC1=C[C@@H]2[C@@H]([C@@H](O)C[C@@]3(C)[C@H]2C[C@@H](C)[C@]3(O)C(=O)CO)[C@@]2(C)Cc3cnn(-c4ccccc4)c3C=C12 | inactive: -18.2% | 
47 | COC(=O)c1ccccc1NC(=O)CSc1c2c(nc3ccc(Cl)cc13)CCCC2 | inactive: 5.01% | 
48 | COc1ccccc1CCNC(=O)C1CCN(c2nc3ccccc3nc2C(F)(F)F)CC1 |  | inactive
